Test results reported in PMC4624580, “E2-EPF UCP regulates stability and functions of missense mutant pVHL via ubiquitin mediated proteolysis” (BMC Cancer, 2015).
Each block holds one binder with its values, some of them ahead of it.

Biological target: T1, His-UCP (E2-EPF ubiquitin carrier protein), recombinant (human, UniProt Q16763 1-222)
T1 construct: E2-EPF ubiquitin carrier protein (UCP), human cDNA from the 21C Frontier Human Gene-Bank, full length cloned into pET28a; Host is probably E. coli BL21 (named only in the list of abbreviations); also called E2-EPF UCP; source: recombinant, pET28a, IPTG-induced, purified (Ni-NTA)
T1 sequence (looked up): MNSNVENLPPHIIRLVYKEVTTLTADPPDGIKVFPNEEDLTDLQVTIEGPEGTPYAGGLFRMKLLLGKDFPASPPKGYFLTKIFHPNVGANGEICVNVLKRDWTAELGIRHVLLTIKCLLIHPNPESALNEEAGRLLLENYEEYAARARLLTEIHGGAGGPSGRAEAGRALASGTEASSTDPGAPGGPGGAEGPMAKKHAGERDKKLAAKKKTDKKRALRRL
Assay: pull-down; recombinant mutant GST-VHL and His-UCP proteins mixed; GST pull-down; bound UCP detected by immunoblot
Details: both partners purified

binding result: binds
B1: GST-pVHL V155A, recombinant (natural protein)
chain: not shown
notes: von Hippel-Lindau protein (pVHL), cloned by PCR from pFlag-VHL; Host is probably E. coli BL21 (list of abbreviations only); also called GST-VHL V155A; source: recombinant, pGEX-4T1, IPTG-induced, purified (glutathione sepharose 4B)

binding result: binds
B2: GST-pVHL L158Q, recombinant (natural protein)
chain: not shown
notes: von Hippel-Lindau protein (pVHL), cloned by PCR from pFlag-VHL; also called GST-VHL L158Q; source: recombinant, pGEX-4T1, IPTG-induced, purified (glutathione sepharose 4B)

binding result: binds
B3: GST-pVHL Q164R, recombinant (natural protein)
chain: not shown
notes: von Hippel-Lindau protein (pVHL), cloned by PCR from pFlag-VHL; also called GST-VHL Q164R; source: recombinant, pGEX-4T1, IPTG-induced, purified (glutathione sepharose 4B)
